{"source": "the supplement of paper PMC4967469", "note": "By IC50 is meant the dose at which the fit gives 50% viability; a limit (>, <) means that the fit lies beyond the doses tested. AUC is the area under the same curve over the 256-fold range up to the top dose, as a fraction; values near 1 show little effect. A top dose marked as inferred comes from the curve model; the source does not state it. Drugs with an entry number were screened twice under separate entries, and the two screens often disagree."}
{"compound": "NC(=O)[C@@H](CCC(F)(F)F)N(Cc1ccc(-c2ncon2)cc1F)S(=O)(=O)c1ccc(Cl)cc1 [BMS-708163]", "test": "Viability of human cancer cell lines after 72 h of drug (GDSC screen)", "conditions": "screen: GDSC drug entry 205; top dose inferred", "procedure": "(§1)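 Human cancer cell lines in 384-well plates, medium with 10% serum, drug for 72 h over a 256-fold dose range (nine 2-fold or five 4-fold steps up to the top dose). Adherent lines were fixed and stained with the nucleic acid dye Syto60, suspension lines read with resazurin; signal relative to control wells, capped at 0 and 100%. One two-parameter sigmoid per drug and line, fitted in a mixed model over all curves with the slope shared within a line.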", "units": {"IC50": "µM"}}
{"cell line": "SK-LMS-1 (soft tissue, adherent, top dose 10.24 µM)", "AUC": 0.987, "IC50": "> 10.2"}
{"cell line": "SK-LU-1 (lung adenocarcinoma, adherent, top dose 10.24 µM)", "AUC": 0.981, "IC50": "> 10.2"}
{"cell line": "SK-MEL-1 (melanoma, suspension, top dose 10.24 µM)", "AUC": 0.993, "IC50": "> 10.2"}
{"cell line": "SK-MEL-2 (melanoma, adherent, top dose 10.24 µM)", "AUC": 0.987, "IC50": "> 10.2"}
{"cell line": "SK-MEL-3 (melanoma, adherent, top dose 10.24 µM)", "AUC": 0.983, "IC50": "> 10.2"}
{"cell line": "SK-MEL-5 (melanoma, adherent, top dose 10.24 µM)", "AUC": 0.981, "IC50": "> 10.2"}
{"cell line": "SK-MEL-24 (melanoma, adherent, top dose 10.24 µM)", "AUC": 0.983, "IC50": "> 10.2"}
{"cell line": "SK-MEL-28 (melanoma, adherent, top dose 10.24 µM)", "AUC": 0.989, "IC50": "> 10.2"}
{"cell line": "SK-MEL-30 (melanoma, adherent, top dose 10.24 µM)", "AUC": 0.981, "IC50": "> 10.2"}
{"cell line": "SK-MES-1 (lung squamous cell carcinoma, adherent, top dose 10.24 µM)", "AUC": 0.982, "IC50": "> 10.2"}
{"cell line": "SK-MG-1 (glioma, adherent, top dose 10.24 µM)", "AUC": 0.986, "IC50": "> 10.2"}
{"cell line": "SK-MM-2 (myeloma, suspension, top dose 10.24 µM)", "AUC": 0.976, "IC50": "> 10.2"}
{"cell line": "SK-N-AS (neuroblastoma, adherent, top dose 10.24 µM)", "AUC": 0.977, "IC50": "> 10.2"}
{"cell line": "SK-N-DZ (neuroblastoma, adherent, top dose 10.24 µM)", "AUC": 0.988, "IC50": "> 10.2"}
{"cell line": "SK-N-FI (neuroblastoma, adherent, top dose 10.24 µM)", "AUC": 0.981, "IC50": "> 10.2"}
{"cell line": "SK-N-SH (neuroblastoma, adherent, top dose 10.24 µM)", "AUC": 0.986, "IC50": "> 10.2"}
{"cell line": "SK-OV-3 (ovary, adherent, top dose 10.24 µM)", "AUC": 0.981, "IC50": "> 10.2"}
{"cell line": "SK-PN-DW (Ewing sarcoma, adherent, top dose 10.24 µM)", "AUC": 0.986, "IC50": "> 10.2"}
{"cell line": "SK-UT-1 (soft tissue, adherent, top dose 10.24 µM)", "AUC": 0.989, "IC50": "> 10.2"}
{"cell line": "SKG-IIIa (cervix, adherent, top dose 10.24 µM)", "AUC": 0.982, "IC50": "> 10.2"}
{"cell line": "SKN (uterus, adherent, top dose 10.24 µM)", "AUC": 0.971, "IC50": "> 10.2"}
{"cell line": "SKN-3 (head and neck, adherent, top dose 10.24 µM)", "AUC": 0.983, "IC50": "> 10.2"}
{"cell line": "SLVL (B-cell lymphoma, suspension, top dose 10.24 µM)", "AUC": 0.974, "IC50": "> 10.2"}
{"cell line": "SN12C (kidney, adherent, top dose 10.24 µM)", "AUC": 0.984, "IC50": "> 10.2"}
{"cell line": "SNB75 (glioma, adherent, top dose 10.24 µM)", "AUC": 0.976, "IC50": "> 10.2"}
{"cell line": "SNG-M (endometrium, adherent, top dose 10.24 µM)", "AUC": 0.972, "IC50": "> 10.2"}
{"cell line": "SNU-61 (large intestine, adherent, top dose 10.24 µM)", "AUC": 0.977, "IC50": "> 10.2"}
{"cell line": "SNU-81 (large intestine, adherent, top dose 10.24 µM)", "AUC": 0.981, "IC50": "> 10.2"}
{"cell line": "SNU-175 (large intestine, suspension, top dose 10.24 µM)", "AUC": 0.984, "IC50": "> 10.2"}
{"cell line": "SNU-182 (liver, adherent, top dose 10.24 µM)", "AUC": 0.986, "IC50": "> 10.2"}
{"cell line": "SNU-387 (liver, adherent, top dose 10.24 µM)", "AUC": 0.984, "IC50": "> 10.2"}
{"cell line": "SNU-398 (liver, adherent, top dose 10.24 µM)", "AUC": 0.985, "IC50": "> 10.2"}
{"compound": "NC(=O)[C@@H](CCC(F)(F)F)N(Cc1ccc(-c2ncon2)cc1F)S(=O)(=O)c1ccc(Cl)cc1 [BMS-708163]", "test": "Viability of human cancer cell lines after 72 h of drug (GDSC screen)", "conditions": "top dose 5 µM; screen: GDSC drug entry 1072; top dose inferred", "procedure": "as §1", "units": {"IC50": "µM"}}
{"cell line": "SK-GT-2 (stomach, adherent)", "AUC": 0.986, "IC50": "> 5"}
{"cell line": "SK-GT-4 (oesophagus, adherent)", "AUC": 0.675, "IC50": 1.09}
{"cell line": "SK-MEL-5 (melanoma, adherent)", "AUC": 0.978, "IC50": "> 5"}
{"cell line": "SK-MEL-31 (melanoma, adherent)", "AUC": 0.975, "IC50": "> 5"}
{"cell line": "SK-MG-1 (glioma, adherent)", "AUC": 0.987, "IC50": "> 5"}
{"cell line": "SNU-61 (large intestine, adherent)", "AUC": 0.985, "IC50": "> 5"}
{"cell line": "SNU-81 (large intestine, adherent)", "AUC": 0.973, "IC50": "> 5"}
{"cell line": "SNU-407 (large intestine, adherent)", "AUC": 0.934, "IC50": "> 5"}
